The results in this text go back to paper PMC6042963.

Chains of the proteins cited; added tags and fusions are not shown.
UniProt Q8VEK2: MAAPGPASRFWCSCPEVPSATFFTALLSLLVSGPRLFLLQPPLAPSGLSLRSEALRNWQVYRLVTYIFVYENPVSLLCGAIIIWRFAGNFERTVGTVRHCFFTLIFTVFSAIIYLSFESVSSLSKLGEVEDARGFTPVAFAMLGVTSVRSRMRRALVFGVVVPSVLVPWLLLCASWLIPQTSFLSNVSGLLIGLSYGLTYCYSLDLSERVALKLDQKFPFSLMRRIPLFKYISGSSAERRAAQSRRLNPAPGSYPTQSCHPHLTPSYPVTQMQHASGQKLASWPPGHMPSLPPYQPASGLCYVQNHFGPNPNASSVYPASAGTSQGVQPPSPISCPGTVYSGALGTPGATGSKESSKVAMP

Experiment [1] concerns the target T1, HA-tagged cytoplasmic N-terminus of human iRhom1 (amino acids 1-404) (human) (UniProt Q96CC6).
T1 sequence: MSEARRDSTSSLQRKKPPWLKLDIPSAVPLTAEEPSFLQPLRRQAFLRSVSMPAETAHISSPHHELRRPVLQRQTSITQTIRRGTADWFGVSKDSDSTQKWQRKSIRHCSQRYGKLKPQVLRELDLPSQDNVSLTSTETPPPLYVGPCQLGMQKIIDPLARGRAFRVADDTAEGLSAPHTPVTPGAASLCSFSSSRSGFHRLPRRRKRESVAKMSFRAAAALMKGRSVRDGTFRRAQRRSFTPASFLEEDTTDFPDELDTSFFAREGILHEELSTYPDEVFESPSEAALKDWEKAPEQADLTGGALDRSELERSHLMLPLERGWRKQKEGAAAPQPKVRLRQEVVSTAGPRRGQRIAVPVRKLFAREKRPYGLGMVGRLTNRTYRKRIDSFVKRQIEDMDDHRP
In words: co-IP; HEK 293ET transfected with iTAP-FLAG and HA-tagged proteins; 1% Triton X-100, 150 mM NaCl, 50 mM Tris-HCl pH 7.4 lysis; anti-HA magnetic beads; washes with 300 mM NaCl at 4°C; FLAG western blot.

For experiment [2], the target named is HA-tagged mouse Rhbdd2 (mouse) (UniProt Q8VEK2). The description is as above.
The target in experiment [3] is T2, HA-tagged full-length mouse iRhom2 (mouse) (UniProt Q80WQ6).
T2 sequence: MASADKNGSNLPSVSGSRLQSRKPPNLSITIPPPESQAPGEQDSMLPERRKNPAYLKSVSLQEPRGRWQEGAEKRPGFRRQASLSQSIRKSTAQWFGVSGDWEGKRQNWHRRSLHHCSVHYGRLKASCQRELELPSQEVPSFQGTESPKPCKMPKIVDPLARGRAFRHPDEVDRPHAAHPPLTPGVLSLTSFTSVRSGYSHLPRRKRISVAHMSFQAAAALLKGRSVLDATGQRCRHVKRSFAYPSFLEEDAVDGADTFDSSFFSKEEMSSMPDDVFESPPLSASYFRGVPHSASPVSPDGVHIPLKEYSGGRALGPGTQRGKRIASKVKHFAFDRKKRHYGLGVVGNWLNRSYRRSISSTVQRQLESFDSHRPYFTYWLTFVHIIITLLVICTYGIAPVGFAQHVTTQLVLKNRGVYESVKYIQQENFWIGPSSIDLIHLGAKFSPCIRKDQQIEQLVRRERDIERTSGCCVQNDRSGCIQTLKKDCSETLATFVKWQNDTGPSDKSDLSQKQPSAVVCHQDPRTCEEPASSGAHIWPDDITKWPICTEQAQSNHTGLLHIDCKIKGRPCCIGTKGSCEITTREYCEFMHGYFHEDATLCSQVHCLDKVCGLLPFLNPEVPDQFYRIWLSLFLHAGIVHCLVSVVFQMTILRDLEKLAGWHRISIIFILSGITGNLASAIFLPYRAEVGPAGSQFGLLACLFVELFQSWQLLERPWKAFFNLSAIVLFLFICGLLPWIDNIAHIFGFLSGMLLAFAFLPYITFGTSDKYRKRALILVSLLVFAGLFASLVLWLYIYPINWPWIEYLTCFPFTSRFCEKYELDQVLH
The description is as above.

Experiment [4] has as its target T3, HA-tagged mouse Ubac2 (mouse) (UniProt Q8R1K1).
T3 sequence: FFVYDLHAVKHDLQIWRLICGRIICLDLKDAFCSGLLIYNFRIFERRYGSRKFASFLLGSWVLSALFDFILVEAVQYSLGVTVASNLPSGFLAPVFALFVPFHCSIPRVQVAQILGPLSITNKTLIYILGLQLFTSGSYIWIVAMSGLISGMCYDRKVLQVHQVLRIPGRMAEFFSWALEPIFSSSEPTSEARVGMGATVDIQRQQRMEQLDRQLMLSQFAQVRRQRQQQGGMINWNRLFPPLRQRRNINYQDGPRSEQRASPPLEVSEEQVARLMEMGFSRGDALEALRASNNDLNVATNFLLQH
The description is as above.

The target in experiment [5] is T4, HA-tagged full-length human iRhom1 (human) (UniProt Q96CC6).
T4 sequence: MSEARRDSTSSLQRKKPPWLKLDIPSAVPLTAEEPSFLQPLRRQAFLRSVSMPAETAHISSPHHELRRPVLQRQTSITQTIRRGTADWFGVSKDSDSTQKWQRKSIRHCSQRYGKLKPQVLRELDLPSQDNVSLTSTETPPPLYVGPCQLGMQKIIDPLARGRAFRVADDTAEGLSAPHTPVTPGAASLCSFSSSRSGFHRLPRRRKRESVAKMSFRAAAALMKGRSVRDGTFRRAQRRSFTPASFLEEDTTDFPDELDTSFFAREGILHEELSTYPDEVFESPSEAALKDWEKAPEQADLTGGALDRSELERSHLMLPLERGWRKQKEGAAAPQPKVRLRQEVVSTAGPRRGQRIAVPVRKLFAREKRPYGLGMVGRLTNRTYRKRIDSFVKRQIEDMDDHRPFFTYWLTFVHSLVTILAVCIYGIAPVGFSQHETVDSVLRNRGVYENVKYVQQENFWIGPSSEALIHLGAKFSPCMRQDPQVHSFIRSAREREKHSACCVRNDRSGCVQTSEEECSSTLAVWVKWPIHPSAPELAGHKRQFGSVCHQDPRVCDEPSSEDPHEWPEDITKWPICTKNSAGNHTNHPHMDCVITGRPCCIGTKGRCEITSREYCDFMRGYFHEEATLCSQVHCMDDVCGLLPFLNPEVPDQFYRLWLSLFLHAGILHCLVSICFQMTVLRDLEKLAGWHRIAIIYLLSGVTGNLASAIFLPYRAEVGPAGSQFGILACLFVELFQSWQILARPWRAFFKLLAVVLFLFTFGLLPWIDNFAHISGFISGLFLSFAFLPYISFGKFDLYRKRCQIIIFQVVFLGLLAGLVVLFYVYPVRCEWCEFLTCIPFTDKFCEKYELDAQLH
Described as above.

A further experiment has as its target T5, human iTAP-FLAG (human) (UniProt Q9BZ67).
T5 sequence: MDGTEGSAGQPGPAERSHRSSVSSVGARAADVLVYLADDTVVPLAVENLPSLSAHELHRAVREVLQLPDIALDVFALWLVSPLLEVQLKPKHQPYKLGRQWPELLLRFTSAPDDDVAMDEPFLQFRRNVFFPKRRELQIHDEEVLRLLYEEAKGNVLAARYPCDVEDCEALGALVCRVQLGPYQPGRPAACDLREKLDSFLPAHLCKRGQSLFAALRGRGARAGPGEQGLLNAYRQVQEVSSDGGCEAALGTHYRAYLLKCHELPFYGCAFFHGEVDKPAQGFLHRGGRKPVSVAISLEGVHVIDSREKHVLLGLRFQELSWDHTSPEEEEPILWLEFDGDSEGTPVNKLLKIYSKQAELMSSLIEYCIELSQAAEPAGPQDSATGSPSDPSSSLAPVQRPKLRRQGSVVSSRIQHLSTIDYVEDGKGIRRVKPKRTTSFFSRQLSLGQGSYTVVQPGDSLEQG
In words: co-IP; HEK 293ET stably expressing iRhom2-HA, transiently transfected with iTAP-FLAG; cells ± thiol-reducible cross-linker DSP; anti-FLAG immunoprecipitation; DTT to reverse cross-links; Endo-H or PNGase F deglycosylation; HA blot.

No constants are given. Whether binding was seen depends on the method and setting. In cells and extracts the contact can be indirect. Some entries that bind do so weakly or less than the wild type. Tags and fused reporters may be left off the sequences shown.

B1: human iTAP-FLAG (protein, UniProt Q9BZ67 1-464)
chain: MDGTEGSAGQPGPAERSHRSSVSSVGARAADVLVYLADDTVVPLAVENLPSLSAHELHRAVREVLQLPDIALDVFALWLVSPLLEVQLKPKHQPYKLGRQWPELLLRFTSAPDDDVAMDEPFLQFRRNVFFPKRRELQIHDEEVLRLLYEEAKGNVLAARYPCDVEDCEALGALVCRVQLGPYQPGRPAACDLREKLDSFLPAHLCKRGQSLFAALRGRGARAGPGEQGLLNAYRQVQEVSSDGGCEAALGTHYRAYLLKCHELPFYGCAFFHGEVDKPAQGFLHRGGRKPVSVAISLEGVHVIDSREKHVLLGLRFQELSWDHTSPEEEEPILWLEFDGDSEGTPVNKLLKIYSKQAELMSSLIEYCIELSQAAEPAGPQDSATGSPSDPSSSLAPVQRPKLRRQGSVVSSRIQHLSTIDYVEDGKGIRRVKPKRTTSFFSRQLSLGQGSYTVVQPGDSLEQG
In the case of B1, the binding entry in experiment [1] is listed as “binds”; in experiment [2], “no binding”; in experiment [3] it was “binds”; in experiment [4], “no binding”; in experiment [5], “binds”.

B2: HA-tagged full-length mouse iRhom2 (protein, UniProt Q80WQ6 1-827)
chain: MASADKNGSNLPSVSGSRLQSRKPPNLSITIPPPESQAPGEQDSMLPERRKNPAYLKSVSLQEPRGRWQEGAEKRPGFRRQASLSQSIRKSTAQWFGVSGDWEGKRQNWHRRSLHHCSVHYGRLKASCQRELELPSQEVPSFQGTESPKPCKMPKIVDPLARGRAFRHPDEVDRPHAAHPPLTPGVLSLTSFTSVRSGYSHLPRRKRISVAHMSFQAAAALLKGRSVLDATGQRCRHVKRSFAYPSFLEEDAVDGADTFDSSFFSKEEMSSMPDDVFESPPLSASYFRGVPHSASPVSPDGVHIPLKEYSGGRALGPGTQRGKRIASKVKHFAFDRKKRHYGLGVVGNWLNRSYRRSISSTVQRQLESFDSHRPYFTYWLTFVHIIITLLVICTYGIAPVGFAQHVTTQLVLKNRGVYESVKYIQQENFWIGPSSIDLIHLGAKFSPCIRKDQQIEQLVRRERDIERTSGCCVQNDRSGCIQTLKKDCSETLATFVKWQNDTGPSDKSDLSQKQPSAVVCHQDPRTCEEPASSGAHIWPDDITKWPICTEQAQSNHTGLLHIDCKIKGRPCCIGTKGSCEITTREYCEFMHGYFHEDATLCSQVHCLDKVCGLLPFLNPEVPDQFYRIWLSLFLHAGIVHCLVSVVFQMTILRDLEKLAGWHRISIIFILSGITGNLASAIFLPYRAEVGPAGSQFGLLACLFVELFQSWQLLERPWKAFFNLSAIVLFLFICGLLPWIDNIAHIFGFLSGMLLAFAFLPYITFGTSDKYRKRALILVSLLVFAGLFASLVLWLYIYPINWPWIEYLTCFPFTSRFCEKYELDQVLH
Turning to B2, the binding entry with human iTAP-FLAG (human) was “binds”.
